Data taken from PubChem BioAssay AID504706 (National Center for Advancing Translational Sciences (NCATS), 2011).
The campaign covered roughly 320,000 compounds. About 200 (0.062%) were called active. The inconclusive results got no clear call from the source; some entries with a clear call stand among them for comparison. Calls follow the shape of the dose curve; as a rule, active = well fitted activation curve with a large enough effect; inconclusive = small, poorly fitted or top-dose-only effect; inactive = no such curve, though single readings can be large or run the other way. Potencies of inconclusive entries are left out as doubtful fits.

Assay: qHTS assay for re-activators of p53 using a Luc reporter; also: nearly all actives have a fitted effect of over 45% in size
Conditions: H1299 p53-A138V BP100-luciferase reporter, luminescence, 24 h; series mostly up to 92.2 µM
How it was run: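 H1299 (p53-null), stable ts p53-A138V + BP100-Luc; 1000 cells/well, Opti-MEM/10% FBS; cpd 4 pt, 1:5; 24 h, 37 deg C, 5% CO2; detection reagent 10 min RT; luminescence.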
Potency is read from the fitted curve at half-maximal effect; tags tell the direction and shape of the fitted curve.

| Compound | Potency |
| --- | --- |
| CCc1ccc(C(=O)OCC(=O)N2CCCCCC2)cc1 | inconclusive [activator, full curve, poor fit] |
| Cc1cc(-c2nnc(SCc3ccccn3)o2)no1 | inconclusive [activator, partial curve, poor fit] |
| Cc1nnc(NC(=O)CSc2nnc(CNC(=O)c3ccc(F)cc3)o2)s1 | inconclusive [activator, single point] |
| Cc1cc(C)n(C(=O)COc2ccccc2[N+](=O)[O-])n1 | inactive |
| N#Cc1cc2c(cc1NC(=O)CCn1cnnn1)OCO2 | inactive |
| Cn1ccnc1SCC(=O)c1cc2ccccc2o1 | inconclusive [activator, full curve, poor fit] |
| Cc1cc(C)c2nc(NNC(=O)c3ccc(S(=O)(=O)N4CCCC(C)C4)cc3)sc2c1 (centres undefined) | inconclusive [activator, partial curve, poor fit] |
| Cc1ccc(C(=O)NCCSc2ccc(Cl)cc2)cc1S(=O)(=O)Nc1ccccc1 | inactive |
| CCCc1c(NC(=O)Nc2ccc(F)cc2)cnn1-c1ccccc1 | inconclusive [activator, partial curve, poor fit] |
| C=CCS/C(N)=N\N=C\c1c(O)ccc2ccccc12 | inconclusive [activator, full curve, poor fit] |
| COc1ccc2cc(C[C@@H]3CC[C@@H](CNC(N)=O)O3)ccc2c1 | inconclusive [activator, partial curve, poor fit] |
| Cc1ccccc1-c1nnc(SCC(=O)NC2CCCC2)n1C | inactive |
| CC(C)(C)C(=O)CC(=O)Nc1ccc(Cl)c(N)c1 | inconclusive [activator, partial curve, poor fit] |
| Cc1cc(CC(C)C)n(-c2nc3ccccc3c(=O)n2OCC(=O)N(C)C)n1 | inconclusive [activator, partial curve, poor fit] |
| COc1cccc(-n2c(SCc3cc(=O)oc4cc(O)c(O)cc34)nc3ccccc3c2=O)c1 | inconclusive [activator, single point] |
| CC1CCN(C(=O)c2[nH]cnc2C(=O)N[C@@H](Cc2ccccc2)C(=O)OC(C)(C)C)CC1 | inactive |
| CCc1nc(NC(C)(C)C)c2cnn(-c3ccccc3)c2n1 | inconclusive [activator, partial curve, poor fit] |
| CCOC(=O)C1=C(C)NC(C)=C(C(=O)OCC)C1C(=O)OCC(=O)N1CCc2ccccc21 | inactive |
| Cc1ccccc1N=Nc1ccc(O)c2ncccc12 | inconclusive [activator, partial curve, poor fit] |
